# Test results taken from the RNAGym collection of RNA variant scans (doi:10.1073/pnas.2313332121).
# Variants at the floor of the assay are shown more often than the library holds them.
# B1: TPR 5TU (parent)
# chain: GGAUCUUCUCGAUCUAACAAAAAAGACAAAUCUGCCACAAAGCUUGAGAGCAUCUUCGGAUGCAGAGGCGGCAGCCUUCGGUGGCGCGAUAGCGCCAACGUUCUCAACUAUGACACGCAAAACGCGUGCUCCGUUGAAUGGAGUUUAUCAUG
# Variants of: B1
# Assay: polymerase ribozyme fitness, log enrichment relative to wild type (log ratio); higher = more active; in vitro selection for triplet polymerase activity
# Procedure, shortened: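 Mutant libraries of both subunits of a heterodimeric triplet polymerase ribozyme were PCR-built, transcribed, and selected once in triplicate, with frozen incubation at −7 °C and capture of gel-excised extended constructs on streptavidin beads before RT-PCR. Illumina sequencing of input and output libraries was filtered to genotypes with ≥10 input reads and ≥1 read per output. Fitness is the logarithm of genotype enrichment over wild-type enrichment, using inverse-variance-weighted replicate averages. The logarithm is base 2.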
row,Variant,polymerase ribozyme fitness (log ratio)
1,U6G A29C A73U G86U,≤ -4.2
2,U7A U13G C54A C103G A119G A138C,≤ -4.2
3,C5G C14A C36G A121U G126C,≤ -4.2
4,U6C A47C U134G U135C,≤ -4.2
5,C5G A17C A60G A115C U135C U148C A150G,≤ -4.2
6,U6C A19C A52U C54A U90G U139C U146A,≤ -4.2
7,U7A G11C U44A G50A C95U,≤ -4.2
8,C5G A12U C35U A64U G71A U101C A137U,≤ -4.2
9,U7A G58C G59A C85U G133C,≤ -4.2
10,U6A C27A G86C A113C,≤ -4.2
11,C5G A20C A41C G59C G94C G136U,≤ -4.2
12,U6G C10G A21G G71A C76U C85A,≤ -4.2
13,C5G A22U C79U C85G A107G,≤ -4.2
14,C5G U56A G58C C79G C87U,≤ -4.2
15,U6C U31G C36A C69U A89G A121U,≤ -4.2
16,U6A A28U U56G U102G A120U G126U,≤ -4.2
17,C5U C54G,-0.591
18,U6C C35A C69A C76U G86A U101C,≤ -4.2
19,U6C U9C A17G G74U G80C C95U C129A,≤ -4.2
20,U7A A16U A20G A49C C57A G94A A107U A122G,≤ -4.2
21,U6A C38G C57A C85U C87U A106C U139C,≤ -4.2

row,Variant,polymerase ribozyme fitness (log ratio)
1,U6G C85A C93A G100U,≤ -4.2
2,U6G G80C,≤ -4.2
3,C5U U56A C75U G83C,-0.766
4,C5U A39U C43A U77C C95G C96U U144C,≤ -4.2
5,U6A C35U G65U G94U A98C C132U U151G,≤ -4.2
6,U6A U7C C32U C69A C79A U151G,≤ -4.2
7,U7A C35A C87A C93A,≤ -4.2
8,C5U C8G U61C G92C G100U,≤ -4.2
9,U6G C32U G50A C51G U53A C79G U82A G84U G88A C95G C118U G136U,≤ -4.2
10,U6C A17C C35U G48U U55A U56A C87A C125U,≤ -4.2
11,U7C A21U C63A G65C C116G,≤ -4.2
12,U6A A29G G74A C103G A107G A122U,≤ -4.2
13,U6G A19G C54A C79U C93A A113U U127G,≤ -4.2
14,C5G A28C A73G,≤ -4.2
15,C5U A91G G92U A107G,≤ -4.2
16,C5U U13G A17G A30U C32G G48C G58C C87U A119C U145C,≤ -4.2
17,C5G G65A A66G A137C G141C,≤ -4.2
18,U6A A16U A107C C131G,≤ -4.2
19,C5G A91U,≤ -4.2
20,C5U G11A A37G C69G C75G C93A C132U,≤ -4.2
21,U7A C8U C38A C54A U56G C57G A66G U134A,≤ -4.2

row,Variant,polymerase ribozyme fitness (log ratio)
1,C5G A24U A29G A49C C57U U82G A91U A98C C131U,≤ -4.2
2,U7A G42A U45A U55A G70A C85G A97C G143U,≤ -4.2
3,C5G A28C U44A G46A A60C U61G C96G G128A,≤ -4.2
4,U6G C14A A22G G50U U55G G92A C108U,≤ -4.2
5,U6G C32U U44A A52U C54A A89C U90A A97U A106C U109G G133A,≤ -4.2
6,U7A C54U C87G,≤ -4.2
7,U6G G11C C35U U61A A64G G74A A107C,≤ -4.2
8,U6C C14G C96A U135G U144G,≤ -4.2
9,C5G C35A A60G U61A C93U C95G A119C G141A,≤ -4.2
10,U6A C14G A20G C76G C79A G83U G133A G143C,≤ -4.2
11,C5U C14G G34U G86U A98G A115G G133A,≤ -4.2
12,U6G C10U C76U C85U G124A A147G,≤ -4.2
13,U7A A26U C27U A41U U55G C93U,≤ -4.2
14,C5G C38U G50A,-1.8
15,C5U U33G G50C C54A U55A C69A C76A C85U C149G,≤ -4.2
16,U6C C10U A20C A122C,≤ -4.2
17,U6G A73U,-0.322
18,U6A A28U C96G A113U G143A,≤ -4.2
19,U7A A20G C35A G59U C85G,≤ -4.2
20,U6G C87A,≤ -4.2
21,U6G U7G C14U A52U A60U A89U U146C,≤ -4.2

row,Variant,polymerase ribozyme fitness (log ratio)
1,C5G U144G,0.355
2,U7C A23C C36G U56A,≤ -4.2
3,U6G A16U A30U A41U G71U G94C U139C,≤ -4.2
4,U6G C35G G59A C85A A106G G126U,≤ -4.2
5,U7C A30U A47C A60G C105U A147U,≤ -4.2
6,U6C G94A C105U U127A,≤ -4.2
7,U6G G86U G152U,-4.12
8,U6G A52C,-0.94
9,U7A A121U A138G,≤ -4.2
10,U6C A23G A49U U55A G88U,≤ -4.2
11,U6G A26G G81C G83A G100A U144G,≤ -4.2
12,U7A C8G A12U A21G A52C U78A G141A,≤ -4.2
13,U7A A73G C87G C131A,≤ -4.2
14,C5G C18A C87G G143A,≤ -4.2
15,C5G A41C C43U G86C G128U,≤ -4.2
16,C5G A24G A26G A113G C116G,≤ -4.2
17,U6G G25U G50C G92A,≤ -4.2
18,U6G C14G A37U A52C C87G C118U A121C,≤ -4.2
19,C5U A24U C32G U53G C123G A147G U151G,≤ -4.2
20,U7A C27U C76U G88A A89G C116A,≤ -4.2
21,U6G G50C,-3.07
